Experimental data taken from PubChem BioAssay AID686971 (National Center for Advancing Translational Sciences (NCATS), 2013).
Screen size: about 360,000 compounds; about 7,500 (2.1%) were called active. The shares of active, inactive and inconclusive entries below differ from those in the screen. Calls come from the whole dose curve; as a rule, active = well fitted cell-killing curve with a large enough effect; inconclusive = small, poorly fitted or top-dose-only effect, or effect the other way, or another doubt; inactive = no such curve, though single readings can be large or run the other way. Potencies of inconclusive entries are left out as doubtful fits.

Assay: qHTS for induction of synthetic lethality in tumor cells producing 2HG: qHTS for the HT-1080-IDH1KD cell line;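 for activity, negative = toxicity: 0% = DMSO wells and -100% = cell-free medium wells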
Conditions: HT-1080 IDH1 knockdown viability, ATP luminescence, 48 h; activity, negative = toxicity: at 46.1 µM (top of the series) unless noted
Method in brief: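 Luminescent ATP read-out (CellTiter-Glo, 10 min at room temperature) after 48 h compound exposure at 37 °C gave viability of IDH1-knockdown HT-1080 cells. Activity was normalised to DMSO and cell-free wells, then fitted as concentration-response curves.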
Potency is the fitted concentration of half-maximal effect; tags give direction and shape of the fitted curve.

Structure (SMILES) | activity, negative = toxicity | Potency
COc1ccc2[nH]c(=O)c(CN(C(=O)c3cccnc3)c3ccc(C)c(C)c3)cc2c1 | inactive: -25.7% | 
CC(=O)c1ccc(OCC(O)CN2CCN(c3ccccn3)CC2)cc1 (stereo not drawn) | inactive: 11.3% | 
CCOc1ccc(N(CC(=O)Nc2cccc(Cl)c2)S(=O)(=O)c2c(C)noc2C)cc1 | inconclusive: -30.1% [cytotoxic] | 
O=C(Nc1ccc(Cl)c(Cl)c1)N[C@@H]1CC[C@@H](CCn2cc(C3CCCCC3)nn2)O[C@@H]1CO |  | active: 23.1 µM
CC(C)(C)C(=O)/C=C/Nc1ccccc1O |  | active: 12.6 µM
CCn1c(SCc2ccc(C#N)cc2)nnc1-c1ccc(S(=O)(=O)N2CCCCC2)cc1 | inactive: -3.97% | 
CCc1ccc([C@@H]2CC(=O)[C@@H]3CN(S(=O)(=O)c4ccc(C)cc4)[C@H](c4ccc(Cl)cc4)C[C@@H]3N2S(=O)(=O)c2ccc(C)cc2)cc1 | inactive: 23.1% | 
CC(=O)c1c(C)[nH]c(C(=O)OCC(=O)Nc2ccc(Cl)c(S(=O)(=O)N(C)C)c2)c1C |  | active: 23.1 µM
CCOC(=O)C1CCN(C(c2ccccn2)c2c(C)[nH]c3ccccc23)CC1 (stereo not drawn) |  | inconclusive [cytotoxic, single point]
CCOC(=O)c1cc([N+](=O)[O-])c([N+](=O)[O-])cc1NC(C)=O |  | inconclusive [cytotoxic, single point]
CN(CC(=O)Nc1ccccc1Cl)CC(=O)N1CCc2ccccc21 | inactive: -7.04% | 
O=C(c1cnc(N2CCN(c3ncccn3)CC2)c2ccccc12)N1CCN(c2ccccn2)CC1 | inactive: -16% | 
Cc1ccc(C)c(C(=O)COc2ccccc2[N+](=O)[O-])c1 |  | inconclusive [cytotoxic, single point]
CCCOc1ccc2nc(C)c(CCC)c(SC(=N)N)c2c1 | inactive: 11.8% | 
COc1ccc(-c2sc3ccccc3c2-c2ccc(OCCN(C)C)cc2)cc1 |  | inconclusive [cytotoxic, single point]
O=C(COc1ccc2ccc(=O)oc2c1)NCCN1CCOCC1 | inactive: 0.0217% | 
COc1ccc2[nH]c(=O)c(C(c3nnnn3C(C)(C)C)N(Cc3ccco3)CC3CCCO3)cc2c1 (stereo not drawn) |  | inconclusive [cytotoxic, single point]
COc1cc(C(=O)Nc2ccc3ccccc3c2)cc(OC)c1OC |  | active: 0.58 µM
C/C(=N/Nc1ccc(C(=O)O)cc1)c1ccc2c(c1)Nc1ccccc1S2 | inactive: -21.2% | 
COC(=O)c1ccc2nc(-c3ccc(OC)c(OC)c3)c(Cc3ccc(C)cc3)n2c1 |  | inconclusive [cytotoxic, single point]
O=C(Nc1sc2c(c1C(=O)O)CCCC2)C(=O)N1CCOCC1 |  | inconclusive [rising, single point]
CC(C)c1cccc(-c2csc(C(O)c3ccc(F)cc3)n2)c1 (stereo not drawn) |  | inconclusive [cytotoxic, single point]
O=C(Nc1ccc(OC(F)(F)F)cc1)Nc1cccc([N+](=O)[O-])c1 |  | inconclusive [cytotoxic, single point]

Structure (SMILES) | activity, negative = toxicity | Potency
CC(C)c1ccc(NC(=O)CN2C(=O)NC(Cc3c[nH]c4ccccc34)C2=O)cc1 (stereo not drawn) |  | inconclusive [cytotoxic, single point]
Cc1nn(Cc2ccc(Cl)cc2)c(Cl)c1/C=N/NC(=O)CNc1ccccc1F |  | inconclusive [cytotoxic, single point]
Cc1cccc(Nc2nc(N)c([N+](=O)[O-])c(N3CCCC(C)C3)n2)c1 (stereo not drawn) |  | inconclusive [cytotoxic, single point]
Fc1cccc(NC(=S)NCc2ccccc2Cl)c1 |  | inconclusive [cytotoxic, single point]
Cc1ccc(Nc2nc(Cl)c(C=O)s2)cc1Cl |  | inconclusive [cytotoxic, single point]
Cc1cccc(C)c1NC(=O)CNC(=O)c1ccc(NS(=O)(=O)c2ccc3[nH]c(=O)[nH]c3c2)cc1 | inactive: 7.21% | 
Cc1ccc(NC(=O)CS(=O)CC(=O)Nc2ccccc2-c2ccc(C)o2)cc1 (stereo not drawn) |  | inconclusive [cytotoxic, single point]
CCc1ccc(/C=C/C(=O)c2c(C)cc(C)[nH]c2=O)cc1 |  | active: 23.1 µM
CC1CCC2(CC1)NC(=O)N(CC(=O)Nc1ccc(N3CCCCC3)cc1)C2=O (stereo not drawn) | inactive: -10.1% | 
COc1ccc(NC(=O)c2nc(S(=O)(=O)Cc3cccc(C)c3)ncc2Cl)c(OC)c1 |  | inconclusive [cytotoxic, full curve, poor fit]
N=C1S/C(=C\c2ccco2)C(=O)N1c1ccc2c(c1)OCO2 |  | inconclusive [cytotoxic, single point]
CC(C)N1C(=O)S/C(=C/c2cccnc2)C1=O | inactive: 2.89% | 
O=c1cc(NCCCO)c2ccccc2o1 | inactive: 5.78% | 
O=C(c1cccc(S(=O)(=O)N2CCCc3ccccc32)c1)N1CCN(c2ccccc2)CC1 |  | inconclusive [cytotoxic, single point]
O=C(O)c1ccc(N/N=C/c2cn(-c3ccccc3)nc2-c2cccs2)cc1 |  | inconclusive [cytotoxic, partial curve]
CCOC(=O)c1cnc2c(ccc3ccccc32)c1NCCO |  | inconclusive [cytotoxic, partial curve]
C=C1C(=O)O[C@H]2[C@H]1[C@@H](O)CC(=C)[C@@H]1CC(=O)[C@@H](C)[C@H]21 |  | inconclusive [cytotoxic, partial curve]
C[C@@H]1NC(=O)N[C@@H]1CCCCCC(=O)O |  | inconclusive [cytotoxic, full curve, poor fit]
CN(Cc1nccn1C)C(=O)C1CCC(=O)N(Cc2cccc(C(F)(F)F)c2)C1 (stereo not drawn) | inactive: 4.66% | 
CCOc1c(OC)cc(C2C(C#N)=C(N)Oc3n[nH]c(-c4ccncc4)c32)cc1OC (stereo not drawn) | inactive: 16.6% | 
CCOC(=O)C1=CCN(S(=O)(=O)c2ccccc2Br)C1c1ccc(Cl)c(Cl)c1 (stereo not drawn) |  | inconclusive [cytotoxic, single point]
CCOc1ccc(N(CC(=O)Nc2ccccc2Cl)S(C)(=O)=O)cc1 |  | inconclusive [cytotoxic, partial curve]
CSc1nc(-c2ccc(C)cc2)[nH]c1S(=O)(=O)c1ccccc1 |  | active: 23.1 µM

Structure (SMILES) | activity, negative = toxicity | Potency
COc1ccc(S(=O)(=O)N(C)C[C@H]2Oc3c(NC(=O)Nc4c(C)noc4C)cccc3C(=O)N([C@@H](C)CO)C[C@H]2C)cc1 | inactive: 6.1% | 
CCCOc1ncnc2c1[nH]c1ccccc12 |  | inconclusive [cytotoxic, partial curve]
O=C(NC1CCCCC1)C(c1ccccc1)n1c(=O)c(-c2cc3ccccc3[nH]2)nc2ccccc21 (stereo not drawn) |  | inconclusive [cytotoxic, single point]
Cc1nnc(SCc2nnc(-c3cccs3)o2)s1 | inactive: 9.56% | 
CC1CCCC(C)N1C(=O)COC(=O)c1cccs1 (stereo not drawn) | inactive: 0.794% | 
Cc1cc(-c2cc(-c3ccccc3)on2)nc(NC2CCCC2)n1 | inactive: 0.95% | 
O=C(c1ccc2c(=O)n(Cc3ccc4c(c3)OCO4)c(=S)[nH]c2c1)N1CCCCC1 | inactive: 8.95% | 
O=C1Nc2ccccc2N(C(=O)c2c(F)cccc2F)C1c1nc2ccccc2[nH]1 (stereo not drawn) |  | inconclusive [cytotoxic, single point]
CCC(=O)Nc1cccc(-c2nc3ccc(C)cc3o2)c1 |  | inconclusive [cytotoxic, single point]
CCCCOc1ncnc2c1[nH]c1ccccc12 |  | active: 14.6 µM
CSCCC(c1nnnn1Cc1ccccc1)N1CCN(C/C=C/c2ccccc2)CC1 (stereo not drawn) |  | inconclusive [cytotoxic, single point]
COCCCNC(=O)c1ccc2c3c(onc13)-c1ccccc1C2=O |  | inconclusive [cytotoxic, single point]
O=C(CCS(=O)(=O)c1ccccc1)Nc1nc2cc3c(cc2s1)OCCO3 |  | inconclusive [cytotoxic, single point]
COc1ccc(/C=C\C(=O)O[C@@H]2C(O)C(O[C@@H]3OC(C)[C@H](O[C@@H]4OCC(O[C@H]5O[C@H](CO)[C@@H](O)C(O)C5O)C(O)C4O)C(O)C3O)[C@H](OC(=O)[C@]34CCC(C)(C)C[C@@H]3C3=CCC5[C@@]6(C)CC(O)C(O[C@@H]7OC(CO)C(O)[C@H](O)[C@H]7O)[C@@](C)(C(=O)O)C6CC[C@@]5(C)[C@]3(CO)CC4)O[C@H]2C)cc1 (stereo partly drawn) |  | active: 20.6 µM
O=c1[nH]c(/C=C/c2ccccc2F)nc2ccccc12 |  | active: 5.8 µM
N#C/C(=N\Nc1cccc(C(F)(F)F)c1)C(=O)c1ccsc1 |  | inconclusive [cytotoxic, full curve]
Cc1cccc(NC(=O)CN2CCCN(S(=O)(=O)c3ccc(Br)s3)CC2)c1 |  | inconclusive [cytotoxic, single point]
Oc1ccc(C[C@H]2CN([C@@H](Cc3cccc(O)c3)CN3CCC[C@@H]3CN3C(=S)NC[C@@H]3Cc3ccccc3)C(=S)N2CC2CCCCC2)cc1 |  | active: 23.1 µM
CC(C)(c1ccccc1)c1ccc(OCCN)cc1 |  | inconclusive [cytotoxic, single point]
CC(c1nccs1)N(C)C(=O)c1cn(Cc2cccc3ccccc23)nn1 (stereo not drawn) | inactive: 9.15% | 
CCCc1cc2c(=O)c(-c3ccc4c(c3)OCCO4)c(C)oc2cc1OS(C)(=O)=O |  | inconclusive [cytotoxic, single point]
Cc1ccc(C(=O)Nc2cccc(-c3ccc(N4CCOCC4)nn3)c2)cc1[N+](=O)[O-] | inactive: -0.833% | 
